# Assay results from publication PMC4336329 (PLoS ONE, 2015).
# Among all 310,000 compounds or so, about 2,200 (0.71%) showed an effect of 50% or more. Effects have a minus sign here. This is one part of the list.
# Biological target: human ether-à-go-go-related gene (hERG) potassium channel (human, UniProt Q12809)
# Assay: primary screen, population patch clamp on CHO cells stably expressing hERG
# Chain of human ether-à-go-go-related gene (hERG) potassium channel (Q12809 whole entry, looked up): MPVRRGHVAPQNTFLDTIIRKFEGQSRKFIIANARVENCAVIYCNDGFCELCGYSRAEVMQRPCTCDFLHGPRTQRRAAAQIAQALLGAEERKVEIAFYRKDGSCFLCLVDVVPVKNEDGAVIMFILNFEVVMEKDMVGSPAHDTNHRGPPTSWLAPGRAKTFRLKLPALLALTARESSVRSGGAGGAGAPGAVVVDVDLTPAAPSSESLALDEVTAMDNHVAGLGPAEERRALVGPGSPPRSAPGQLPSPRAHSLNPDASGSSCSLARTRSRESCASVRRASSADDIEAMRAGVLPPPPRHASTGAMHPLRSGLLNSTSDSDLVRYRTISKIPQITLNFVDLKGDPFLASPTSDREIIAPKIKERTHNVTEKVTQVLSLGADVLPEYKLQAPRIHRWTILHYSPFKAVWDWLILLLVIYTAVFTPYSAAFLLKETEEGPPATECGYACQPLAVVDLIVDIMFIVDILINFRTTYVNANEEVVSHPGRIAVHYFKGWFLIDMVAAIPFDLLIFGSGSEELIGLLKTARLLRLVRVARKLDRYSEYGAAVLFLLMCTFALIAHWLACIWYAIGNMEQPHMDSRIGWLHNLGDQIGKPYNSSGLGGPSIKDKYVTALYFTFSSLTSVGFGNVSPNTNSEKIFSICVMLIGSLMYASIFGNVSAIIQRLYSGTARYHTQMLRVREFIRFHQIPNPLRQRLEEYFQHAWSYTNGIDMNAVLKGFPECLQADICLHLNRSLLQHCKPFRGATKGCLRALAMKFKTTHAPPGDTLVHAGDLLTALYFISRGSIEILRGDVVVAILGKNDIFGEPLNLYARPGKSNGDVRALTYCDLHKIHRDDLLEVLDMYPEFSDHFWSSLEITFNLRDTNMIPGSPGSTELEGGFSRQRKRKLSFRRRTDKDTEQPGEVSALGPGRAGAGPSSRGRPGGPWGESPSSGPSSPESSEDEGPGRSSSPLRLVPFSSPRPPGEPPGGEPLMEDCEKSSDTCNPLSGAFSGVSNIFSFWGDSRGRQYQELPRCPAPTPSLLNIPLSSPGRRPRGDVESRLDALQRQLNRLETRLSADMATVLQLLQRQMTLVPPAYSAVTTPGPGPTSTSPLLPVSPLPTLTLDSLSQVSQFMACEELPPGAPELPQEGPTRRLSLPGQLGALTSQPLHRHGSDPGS
row,SMILES,"hERG current change (%, negative = inhibition) at 1uM [%]"
1,O=C(CSCc1cnn(-c2ccccc2)c1-n1cccc1)NCc1cccs1,-13.5
2,Cc1ccc2c(c1)nnn2C1CCN(S(=O)(=O)c2ccc3ccccc3c2)CC1,4
3,COc1ccc(NCc2nnc(SCC(=O)Nc3nc(-c4ccccc4)cs3)n2-c2ccccc2)cc1,9.48
4,OC(COc1ccc(CN2CCSCC2)cc1)CN1CCCCC1 (stereo not drawn),11
5,NS(=O)(=O)c1ccc(CCn2c(=S)[nH]c3ccccc3c2=O)cc1,0.0031
6,CCOC(=O)c1c(C)[nH]c(C(=O)N/N=C/c2ccc(OC)c(OC)c2)c1C,13.6
7,CCOc1ccc(C2C(C(=O)c3ccc(C)o3)=C(O)C(=O)N2CCN2CCOCC2)cc1OC (stereo not drawn),12.3
8,CN(C)CCCn1c2c(c(SCC(=O)Nc3cccc4ccccc34)nc1=O)CCCC2,-11.5
9,CCC(C)NC(=O)c1ccccc1-c1nc2ccccc2[nH]1 (stereo not drawn),-1.69
10,Cc1[nH]c2ccccc2c1C(=O)C(C)OC(=O)c1ccc([N+](=O)[O-])o1 (stereo not drawn),5.81
11,Cc1nn(C(C)(C)C)c(C)c1/C=N/OC(=O)Nc1ccc(Cl)c(Cl)c1,10.1
12,Cc1onc(-c2ccccc2Cl)c1C(=O)Nc1ccc2c(c1)OCO2,7.19
13,O=C(C1=C(O)C(=O)N(CCN2CCOCC2)C1c1cccc(Br)c1)c1cc2ccccc2o1 (stereo not drawn),12.7
14,N#CC1=C(N)NC(SCc2ccc(Br)cc2)=C(C#N)C12CCCCC2,4.53
15,CCOc1ccc(N(CC(=O)N/N=C/c2cc([N+](=O)[O-])ccc2Cl)S(C)(=O)=O)cc1,-2.41
16,COc1cc(S(=O)(=O)N2CCC(c3nc4ccccc4s3)CC2)ccc1S(=O)(=O)N1CC(C)CC(C)C1 (stereo not drawn),13.6
17,O=C(Cn1nnc2c(cnn2-c2ccc(F)cc2)c1=O)c1ccccc1F,7.76
18,COc1ccc(-c2nnn(CCc3nn[nH]n3)n2)cc1OC,15.8
19,Cc1ccn(C(=O)c2ccc(NC(=O)C3CCCCC3)cc2)n1,3.48

row,SMILES,"hERG current change (%, negative = inhibition) at 1uM [%]"
1,O=C(CSc1nnc(-c2ccc(O)cc2)o1)Nc1ccccc1,9.47
2,CC1=NC(C)Cc2ccccc21.Cl (stereo not drawn),17.6
3,CC(NC(=O)COC(=O)CCc1nc(=O)c2ccccc2n1C)c1ccccc1 (stereo not drawn),15.5
4,CC1=C(C)CC(C(=O)NCc2ccc3c(c2)OCO3)C(C(=O)O)C1 (stereo not drawn),14.2
5,O=c1cc(C(F)(F)F)nc(SCc2cccnc2)[nH]1,10.8
6,CCCNC(=S)N1CCN(c2nc(C)nc3sc4c(c23)CCCC4)CC1,-3.85
7,CN(Cc1ccccc1)C(=O)c1nc[nH]c1C(=O)N(C)Cc1ccccc1,4.39
8,CN1CCC(=O)N([C@H](CSc2ccc(Br)cc2)Cc2ccccc2)CC1,-16.6
9,CCOc1ccc(N2C(=O)CC(NC3CCN(C(=O)c4ccc(F)cc4)CC3)C2=O)cc1 (stereo not drawn),13.1
10,C=CCNc1cc(C)oc(=O)c1C(=O)CCC,13.8
11,O=C(CNC(=S)N(CCCN1CCOCC1)Cc1cccs1)NCCCN1CCOCC1,16.3
12,Cc1ccc(NC(=O)CCC(=O)c2cccs2)cc1,2.02
13,Cc1cc(Oc2ccc(=O)[nH]n2)nc(Cl)n1,13.8
14,Cn1c(N)c(S(=O)(=O)N2CCN(Cc3ccccc3)CC2)c(=O)n(C)c1=O,-1.66
15,O=C(CSc1nnc(CNC(=O)c2c(F)cccc2F)o1)Nc1ccc2c(c1)OCO2,8.14
16,CCN(CC)CCNC(=O)C12CC3CC(CC(C3)C1)C2.Cl,-2.95
17,Cc1ccc(CN2CCN(C3CCOCC3)CC2CCO)cc1 (stereo not drawn),-9.32
18,O=c1c2ccccc2nnn1Cc1ccc(F)cc1,6.47
19,COc1ccccc1C(=O)NC(=O)COC(=O)/C(=C/c1ccccc1)NC(C)=O,-2.59

row,SMILES,"hERG current change (%, negative = inhibition) at 1uM [%]"
1,CCN(CC(=O)Nc1c(F)cccc1F)C(=O)/C=C/c1ccc2ccccc2n1,4.28
2,COc1cccc2c(=O)n(CC(=O)NC3CCCC3)ccc12,12.7
3,CC(C)(C)n1cnnc1Sc1ccc([N+](=O)[O-])cn1,6.11
4,c1ccc(-c2csc3ncn4nnnc4c23)cc1,0.973
5,COc1ccc2c(c1)c1ccccc1n2C,9.94
6,Cc1ncc(CN2CCC(CO)(CCOc3ccccc3)CC2)s1,-35.6
7,O=C(CCc1nc2sc3c(c2c(=O)[nH]1)CCCC3)NCCc1ccc(F)cc1,5.64
8,C=CCn1c(=O)c2c(nc3n2CCN3c2cccc(Cl)c2C)n(C)c1=O,3.58
9,Cc1ccc2nc(SCC(=O)N3CCCC3)nc(=O)n2c1,11.4
10,Cc1cc(C)c(S(=O)(=O)Nc2ccccc2-c2ccccc2)c(C)c1,6.87
11,COc1ccc(-n2c(SCC(=O)NCC3CCCO3)nc3ccccc32)cc1 (stereo not drawn),-0.367
12,CCC/C(O)=C1\C(=O)CC(C)(C)CC1=Nc1ccc(OC)cc1,10.5
13,COc1ccccc1CNC(=O)C1CCCN(S(=O)(=O)c2cnc[nH]2)C1 (stereo not drawn),8.47
14,O=C(CSc1ccc2ccccc2n1)c1ccc2c(c1)OCO2,-0.54
15,Cc1cc(C)n(-c2ccnc3cc(Cl)ccc23)n1,13.1
16,COc1ccc(CN(C#N)c2nc(C)cc(C)n2)cc1,14.7
17,O=C(CCn1c(=O)oc2ccc(Cl)cc21)N1CCN(Cc2ccccc2)CC1,-4.55
18,Cc1ccc(C(=O)NC(=O)OCCn2c(C)cnc2[N+](=O)[O-])cc1,-2.2
19,O=C1C2C(c3ccccc3)C=CC(c3ccccc3)C2C(=O)N1c1ccncc1 (stereo not drawn),11.4
